# Some of the results follow.
# B1: rCnSL-proA (Clitocybe nebularis) (protein)
# chain: AAFFSLVVLLALLPFGIHASALPSTELTPRVNPNLPGPNDVFVGFRGTNNIVGAIYEKDGIKDTPLNNGADAEMGPGSYITDGLFTARIFASGSAGNNPGTTATVCKIYASGVQWRGAPKGYIPVAYFGNGPTAEQRRQTYLRTLGLPGTAIRFGNLNTNPGQGPTAPRQMVVPPGPLRSLLKASCFPAADTRLPQTLHYFEKRVDWNIITAADSQTWGH
# Legend:
# Test in all cases: glycan array binding signal (z-score within array); higher = stronger binding
# Settings in all cases: glycan notation: IUPAC condensed, linker removed
# [1] = molecular target: Fuc(a1-2)[GalNAc(a1-3)]Gal(b1-3)GlcNAc(b1-6)GalNAc
# Method in brief: (§1)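 From the Consortium for Functional Glycomics database, 3228 arrays were curated, keeping only those whose protein sequence was available. Binding is given as a within-array Z-score averaged across arrays sharing a protein sequence and across linkers. Negative Z-scores can be read as non-binding.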
# [2] = molecular target: Fuc(a1-2)[GalNAc(a1-3)]Gal(b1-4)Glc
# Method in brief: as §1
# [3] = molecular target: Fuc(a1-2)[GalNAc(a1-3)]Gal(b1-4)GlcNAc
# Method in brief: as §1
# [4] = molecular target: Fuc(a1-2)[GalNAc(a1-3)]Gal(b1-4)GlcNAc(b1-2)Man
# Method in brief: as §1
# [5] = molecular target: Fuc(a1-2)[GalNAc(a1-3)]Gal(b1-4)GlcNAc(b1-2)Man(a1-3)[Fuc(a1-2)[GalNAc(a1-3)]Gal(b1-4)GlcNAc(b1-2)Man(a1-6)]Man(b1-4)GlcNAc(b1-4)GlcNAc
# Method in brief: as §1
# [6] = molecular target: Fuc(a1-2)[GalNAc(a1-3)]Gal(b1-4)GlcNAc(b1-2)Man(a1-3)[Fuc(a1-2)[GalNAc(a1-3)]Gal(b1-4)GlcNAc(b1-2)Man(a1-6)]Man(b1-4)GlcNAc(b1-4)[Fuc(a1-6)]GlcNAc
# Method in brief: as §1
# [7] = molecular target: Fuc(a1-2)[GalNAc(a1-3)]Gal(b1-4)GlcNAc(b1-3)Gal(b1-4)GlcNAc
# Method in brief: as §1
# [8] = molecular target: Fuc(a1-2)[GalNAc(a1-3)]Gal(b1-4)GlcNAc(b1-3)Gal(b1-4)GlcNAc(b1-3)Gal(b1-4)GlcNAc
# Method in brief: as §1
# [9] = molecular target: Fuc(a1-2)[GalNAc(a1-3)]Gal(b1-4)GlcNAc(b1-3)GalNAc
# Method in brief: as §1
# [10] = molecular target: Fuc(a1-2)[GalNAc(a1-3)]Gal(b1-4)GlcNAc(b1-3)[Fuc(a1-2)[GalNAc(a1-3)]Gal(b1-4)GlcNAc(b1-6)]GalNAc
# Method in brief: as §1
# [11] = molecular target: Fuc(a1-2)[GalNAc(a1-3)]Gal(b1-4)GlcNAc(b1-6)GalNAc
# Method in brief: as §1
# [12] = molecular target: Fuc(a1-2)[GalNAc(a1-3)]Gal(b1-4)[Fuc(a1-3)]GlcNAc
# Method in brief: as §1
# [13] = molecular target: Fuc(a1-2)[GalNAc(a1-3)]Gal(b1-4)[Fuc(a1-3)]GlcNAc(b1-3)GalNAc
# Method in brief: as §1
# [14] = molecular target: Fuc(a1-2)[GalNAc(a1-4)]Gal(b1-4)GlcNAc
# Method in brief: as §1
# [15] = molecular target: Fuc(a1-2)[GalNAc(b1-3)]Gal
# Method in brief: as §1
# Fuc(a1-3)GlcNAc = molecular target: Fuc(a1-3)GlcNAc
# Method in brief: as §1
# [16] = molecular target: Fuc(a1-3)[Gal(b1-4)]Glc6S
# Method in brief: as §1
# [17] = molecular target: Fuc(a1-3)[Gal(b1-4)]GlcNAc
# Method in brief: as §1
# [18] = molecular target: Fuc(a1-3)[Gal(b1-4)]GlcNAc(b1-2)Man
# Method in brief: as §1
# [19] = molecular target: Fuc(a1-3)[Gal(b1-4)]GlcNAc(b1-2)Man(a1-3)[Fuc(a1-3)[Gal(b1-4)]GlcNAc(b1-2)Man(a1-6)]Man(b1-4)GlcNAc(b1-4)GlcNAc
# Method in brief: as §1
# [20] = molecular target: Fuc(a1-3)[Gal(b1-4)]GlcNAc(b1-2)Man(a1-3)[Fuc(a1-3)[Gal(b1-4)]GlcNAc(b1-2)Man(a1-6)]Man(b1-4)GlcNAc(b1-4)[Fuc(a1-6)]GlcNAc
# Method in brief: as §1
# [21] = molecular target: Fuc(a1-3)[Gal(b1-4)]GlcNAc(b1-3)Gal(b1-3)[Fuc(a1-4)]GlcNAc
# Method in brief: as §1
# [22] = molecular target: Fuc(a1-3)[Gal(b1-4)]GlcNAc(b1-3)Gal(b1-4)[Fuc(a1-3)]GlcNAc
# Method in brief: as §1
# [23] = molecular target: Fuc(a1-3)[Gal(b1-4)]GlcNAc(b1-3)Gal(b1-4)[Fuc(a1-3)]GlcNAc(b1-3)Gal(b1-4)[Fuc(a1-3)]GlcNAc
# Method in brief: as §1
# [24] = molecular target: Fuc(a1-3)[Gal(b1-4)]GlcNAc(b1-3)GalNAc
# Method in brief: as §1
# [25] = molecular target: Fuc(a1-3)[Gal(b1-4)]GlcNAc(b1-6)GalNAc
# Method in brief: as §1
# [26] = molecular target: Fuc(a1-3)[Gal(b1-4)]GlcNAc(b1-6)[Gal(b1-3)GlcNAc(b1-3)]Gal(b1-4)Glc
# Method in brief: as §1
# [27] = molecular target: Fuc(a1-3)[Gal(b1-4)]GlcNAc6S
# Method in brief: as §1
# [28] = molecular target: Fuc(a1-3)[Gal3S(b1-4)]Glc
# Method in brief: as §1
# [29] = molecular target: Fuc(a1-3)[Gal3S(b1-4)]GlcNAc
# Method in brief: as §1
# [30] = molecular target: Fuc(a1-3)[Gal3S(b1-4)]GlcNAc6S
# Method in brief: as §1
# [31] = molecular target: Fuc(a1-3)[GalNAc(b1-4)]GlcNAc
# Method in brief: as §1
# [32] = molecular target: Fuc(a1-3)[GalNAc(b1-4)]GlcNAc6S
# Method in brief: as §1
# Fuc(a1-4)GlcNAc = molecular target: Fuc(a1-4)GlcNAc
# Method in brief: as §1
# Fuc(b1-3)GlcNAc = molecular target: Fuc(b1-3)GlcNAc
# Method in brief: as §1
# Gal(a1-2)Gal = molecular target: Gal(a1-2)Gal
# Method in brief: as §1
# Gal(a1-3)Gal = molecular target: Gal(a1-3)Gal
# Method in brief: as §1
# Gal(a1-3)Gal(b1-3)GlcNAc = molecular target: Gal(a1-3)Gal(b1-3)GlcNAc
# Method in brief: as §1
# [33] = molecular target: Gal(a1-3)Gal(b1-3)GlcNAc(b1-2)Man
# Method in brief: as §1
# [34] = molecular target: Gal(a1-3)Gal(b1-3)GlcNAc(b1-2)Man(a1-3)[Gal(a1-3)Gal(b1-3)GlcNAc(b1-2)Man(a1-6)]Man(b1-4)GlcNAc(b1-4)GlcNAc
# Method in brief: as §1
# [35] = molecular target: Gal(a1-3)Gal(b1-3)GlcNAc(b1-3)GalNAc
# Method in brief: as §1
# [36] = molecular target: Gal(a1-3)Gal(b1-3)GlcNAc(b1-6)GalNAc
# Method in brief: as §1
# [37] = molecular target: Gal(a1-3)Gal(b1-3)[Fuc(a1-4)]GlcNAc(b1-2)Man(a1-3)[Gal(a1-3)Gal(b1-3)[Fuc(a1-4)]GlcNAc(b1-2)Man(a1-6)]Man(b1-4)GlcNAc(b1-4)GlcNAc
# Method in brief: as §1
# Gal(a1-3)Gal(b1-4)Glc = molecular target: Gal(a1-3)Gal(b1-4)Glc
# Method in brief: as §1
# Gal(a1-3)Gal(b1-4)GlcNAc = molecular target: Gal(a1-3)Gal(b1-4)GlcNAc
# Method in brief: as §1
binder,measurement,setting,value
B1,glycan array binding signal (z-score),[1],-0.439
same,glycan array binding signal (z-score),[2],-0.488
same,glycan array binding signal (z-score),[3],-0.387
same,glycan array binding signal (z-score),[4],-0.723
same,glycan array binding signal (z-score),[5],-0.716
same,glycan array binding signal (z-score),[6],1.61
same,glycan array binding signal (z-score),[7],-0.422
same,glycan array binding signal (z-score),[8],0.32
same,glycan array binding signal (z-score),[9],-0.606
same,glycan array binding signal (z-score),[10],-0.16
same,glycan array binding signal (z-score),[11],-0.494
same,glycan array binding signal (z-score),[12],0.05
same,glycan array binding signal (z-score),[13],1.05
same,glycan array binding signal (z-score),[14],-1.23
same,glycan array binding signal (z-score),[15],-0.69
same,glycan array binding signal (z-score),Fuc(a1-3)GlcNAc,-0.394
same,glycan array binding signal (z-score),[16],0.21
same,glycan array binding signal (z-score),[17],-0.632
same,glycan array binding signal (z-score),[18],-0.28
same,glycan array binding signal (z-score),[19],0.121
same,glycan array binding signal (z-score),[20],-0.036
same,glycan array binding signal (z-score),[21],-0.394
same,glycan array binding signal (z-score),[22],-0.163
same,glycan array binding signal (z-score),[23],-0.736
same,glycan array binding signal (z-score),[24],-0.051
same,glycan array binding signal (z-score),[25],0.153
same,glycan array binding signal (z-score),[26],0.16
same,glycan array binding signal (z-score),[27],0.115
same,glycan array binding signal (z-score),[28],-0.239
same,glycan array binding signal (z-score),[29],0.244
same,glycan array binding signal (z-score),[30],-0.206
same,glycan array binding signal (z-score),[31],-0.169
same,glycan array binding signal (z-score),[32],-0.537
same,glycan array binding signal (z-score),Fuc(a1-4)GlcNAc,0.109
same,glycan array binding signal (z-score),Fuc(b1-3)GlcNAc,-0.018
same,glycan array binding signal (z-score),Gal(a1-2)Gal,-0.278
same,glycan array binding signal (z-score),Gal(a1-3)Gal,-0.706
same,glycan array binding signal (z-score),Gal(a1-3)Gal(b1-3)GlcNAc,-0.421
same,glycan array binding signal (z-score),[33],-0.638
same,glycan array binding signal (z-score),[34],0.326
same,glycan array binding signal (z-score),[35],-0.186
same,glycan array binding signal (z-score),[36],-0.207
same,glycan array binding signal (z-score),[37],-1.23
same,glycan array binding signal (z-score),Gal(a1-3)Gal(b1-4)Glc,-0.201
same,glycan array binding signal (z-score),Gal(a1-3)Gal(b1-4)GlcNAc,-0.284

# Source: the supplement of paper PMC8728848
